# Among all 310,000 compounds or so, about 2,200 (0.71%) showed an effect of 50% or more. Effects have a minus sign here. The list shows a part of the results.
# Target: human ether-à-go-go-related gene (hERG) potassium channel (human, UniProt Q12809)
# Assay: primary screen, population patch clamp on CHO cells stably expressing hERG
# Sequence of human ether-à-go-go-related gene (hERG) potassium channel (Q12809 whole entry, looked up): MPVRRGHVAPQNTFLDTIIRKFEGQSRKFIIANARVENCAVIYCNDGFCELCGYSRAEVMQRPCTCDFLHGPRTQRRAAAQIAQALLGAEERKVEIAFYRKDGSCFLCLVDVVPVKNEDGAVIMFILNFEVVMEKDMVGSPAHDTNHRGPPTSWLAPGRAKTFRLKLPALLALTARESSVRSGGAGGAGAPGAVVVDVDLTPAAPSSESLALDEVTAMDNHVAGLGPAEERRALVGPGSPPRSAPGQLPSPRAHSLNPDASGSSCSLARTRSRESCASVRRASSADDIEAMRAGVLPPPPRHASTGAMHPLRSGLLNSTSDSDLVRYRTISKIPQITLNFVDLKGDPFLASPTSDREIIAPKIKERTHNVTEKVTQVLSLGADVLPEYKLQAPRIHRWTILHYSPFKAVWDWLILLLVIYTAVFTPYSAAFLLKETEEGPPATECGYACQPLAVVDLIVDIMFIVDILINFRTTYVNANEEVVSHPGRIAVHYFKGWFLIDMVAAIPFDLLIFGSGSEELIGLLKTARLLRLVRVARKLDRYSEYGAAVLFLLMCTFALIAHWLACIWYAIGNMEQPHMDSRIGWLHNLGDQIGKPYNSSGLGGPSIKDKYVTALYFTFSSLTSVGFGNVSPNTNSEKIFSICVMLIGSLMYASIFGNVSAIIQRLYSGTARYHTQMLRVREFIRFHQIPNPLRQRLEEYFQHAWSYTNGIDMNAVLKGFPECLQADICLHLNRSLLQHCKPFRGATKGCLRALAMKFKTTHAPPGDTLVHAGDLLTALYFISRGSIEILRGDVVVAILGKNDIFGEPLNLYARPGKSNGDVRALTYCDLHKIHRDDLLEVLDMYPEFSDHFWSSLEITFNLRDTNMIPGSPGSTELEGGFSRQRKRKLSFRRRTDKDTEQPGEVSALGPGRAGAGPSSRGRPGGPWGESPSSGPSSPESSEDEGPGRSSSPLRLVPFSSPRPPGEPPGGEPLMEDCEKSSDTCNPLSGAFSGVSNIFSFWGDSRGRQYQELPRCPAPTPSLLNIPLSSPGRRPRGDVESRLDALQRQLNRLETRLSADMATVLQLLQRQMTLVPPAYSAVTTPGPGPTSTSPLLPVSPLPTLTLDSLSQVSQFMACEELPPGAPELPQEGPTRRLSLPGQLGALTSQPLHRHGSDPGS
row,Structure (SMILES),"hERG current change (%, negative = inhibition) at 1uM [%]"
1,Cc1cccc(-n2c(-c3ccco3)nc3nc4ccccc4nc32)c1,4.84
2,CCOc1ccc(S(=O)(=O)NCCC(=O)N2CC(C)OC(C)C2)cc1 (centres unmarked),13.5
3,O=C(c1cc2ccccc2oc1=O)N(c1ccccc1)C1C=CS(=O)(=O)C1 (centres unmarked),4.42
4,CCc1nnc(NS(=O)(=O)c2ccc(NC(=O)c3ccco3)cc2)s1,6.9
5,CC12CCC(C(=O)O)(c3nc4cc([N+](=O)[O-])ccc4nc31)C2(C)C (centres unmarked),4.11
6,CCN(C(=O)c1cccc(F)c1)c1ccccc1C,11
7,CCOC(=O)C1CCN(c2c(NCc3ccc(C(=O)NC(C)CC)cc3)c(=O)c2=O)CC1 (centres unmarked),-0.0771
8,O=C(O)CCC(=O)NCCn1c(-c2ccccc2)csc1=Nc1ccccc1,14
9,Cc1cc(C)n2nc(SCc3cc(=O)oc4cc(C)c(C)cc34)nc2n1,15.1
10,O=C(Nc1ccccc1F)c1ccc([N+](=O)[O-])s1,6.9
11,CC(C)OP(=O)(O)NC(=O)c1ccccc1,-0.176
12,CC(=O)Nc1cccn(Cc2c(Cl)cccc2Cl)c1=O,14.9
13,Cc1ccc(S(=O)(=O)NCCC(=O)NNC(=O)C2COc3ccccc3O2)cc1 (centres unmarked),2.12
14,C#CCN1c2ccccc2Sc2cccnc21,15.7
15,O=C(O)CCNS(=O)(=O)c1ccc(Oc2ccccc2Cl)cc1,-3.62
16,COC(=O)C1SCC2C(=O)N(Cc3ccc(F)cc3)CC(=O)N21 (centres unmarked),9.76
17,CCOc1ccc(C(=O)N2CCCC2)cc1OC,-1.68
18,Cc1ccc(S(=O)(=O)Nc2cccnc2)cc1,24.3
19,O=C(COC(=O)Cc1ccc(F)cc1)Nc1cc(S(=O)(=O)N2CCOCC2)ccc1N1CCCC1,-0.409

row,Structure (SMILES),"hERG current change (%, negative = inhibition) at 1uM [%]"
1,Cc1cc(C)n(-c2ccc(C(=O)N3CCc4ccccc43)cc2)n1,0.719
2,CCOc1ccc(C(=O)Nc2ccc(C(F)(F)F)n(C)c2=O)cc1,2.14
3,Cc1ccc(NC(=O)CCCCCNS(=O)(=O)c2ccc(C)cc2)cc1,11.2
4,CCOC(=O)CN(C(=O)c1ccccc1[N+](=O)[O-])C(C)(C)C,12.1
5,CC(OC(=O)c1cccs1)C(=O)NC1CCCCC1C (centres unmarked),-66.1
6,Cn1c(SCC(=O)NC2CCCC2)nnc1-c1ccc(S(=O)(=O)N2CCOCC2)cc1,-2.36
7,COc1ccc(CCNC(=O)C2CCN(S(=O)(=O)c3ccc(F)cc3)CC2)cc1,0.603
8,COCCOC(=O)C1=C(C)N=C2SCCC(=O)N2C1c1cccc(Br)c1 (centres unmarked),3.78
9,COc1ccc(OCC(Cn2cnc3ccccc32)OC(C)=O)cc1.Cl (centres unmarked),9.29
10,COc1ccc(OC)c(-c2csc(NC(=O)C3COc4ccccc4O3)n2)c1 (centres unmarked),16.5
11,O=C(CN1C(=O)CCC1=O)Nc1nc(-c2ccc(Oc3ccccc3)cc2)cs1,4.54
12,Cc1cc[n+](-c2[nH]c(=O)sc2/C=N/NC([S-])=Nc2ccccc2)cc1C,12.2
13,Cc1ccc(CSCC(=O)Nc2ccccc2)cc1,10.6
14,Cc1c(Br)cnn1C(C)C(=O)N1CCN(c2ccccc2F)CC1 (centres unmarked),-3.94
15,CN(C)CCN(CC1CCCN(Cc2ccccc2F)C1)C(=O)c1ccc(F)cc1 (centres unmarked),10.7
16,CCC(C)(C(=O)NC1CCCCC1)N(C(=O)c1ccccn1)c1ccccc1 (centres unmarked),-19.4
17,N#C/C(=N/Nc1ccccc1F)C(=N)N1CCOCC1,13.6
18,O=C(COC(=O)C1CCCCC1C(=O)N1CCc2ccccc21)NCc1ccco1 (centres unmarked),2.36
19,COC(=O)[C@@H](NC(=O)N(C1CCCCC1)C1CCCCC1)C(C)C,9.46

row,Structure (SMILES),"hERG current change (%, negative = inhibition) at 1uM [%]"
1,COc1cccc(C(=O)NNC2OC(CO)C(O)C2O)c1 (centres unmarked),17.8
2,Cc1c(C)n(CCCN(C)C)c2ncnc(NCc3ccccc3)c12,13.3
3,Cn1c(SCC(=O)N2CCN(c3cccc(Cl)c3)CC2)nnc1-c1ccncc1,-13.3
4,Cc1cc(SCC(=O)c2cccs2)nc2c(C)cccc12,-8.13
5,COc1ccc(C(C)=O)cc1CN1C(=O)C(C)N(c2ccc(C)cc2)C1=O (centres unmarked),-16.2
6,Cc1cc(C)nc(N2CCCC(C(=O)Nc3cccc(Cl)c3)C2)n1 (centres unmarked),12.8
7,O=C(COc1cccnc1[N+](=O)[O-])N1N=C(c2ccc(Cl)cc2)CC1c1ccco1 (centres unmarked),18.6
8,O=C(NC(Cc1ccccc1)C(=O)O)/C(=C\c1cccc([N+](=O)[O-])c1)NC(=O)c1ccco1 (centres unmarked),30.3
9,NS(=O)(=O)c1ccc(NC(=O)COC(=O)C2(c3ccccc3F)CCCC2)cc1,-2.4
10,O=C(c1ccc(F)cc1)N1CCN(c2cc(N3CCCCC3)c(F)cc2[N+](=O)[O-])CC1,2.91
11,CN=C(Nc1cc(C)nn1CCC#N)c1ccc(F)cc1,16.4
12,Brc1cc(/C=N/n2cnnc2)oc1Br,9.42
13,O=C(Nc1ncccn1)c1ccc([N+](=O)[O-])cc1[N+](=O)[O-],6.47
14,COc1ccc(C(=O)NNC(=O)C(NC(=O)c2ccccc2NC(=O)c2ccco2)C(C)C)cc1 (centres unmarked),-8.18
15,CC(C)CCNC(=O)CN(CCN1CCOCC1)C(=O)Cn1nnc(-c2ccc(F)cc2)n1,0.0812
16,CCCN1C(=O)C2(C(C(=O)c3ccc(C)o3)=C(O)C(=O)N2CCCOC)c2ccccc21 (centres unmarked),7.99
17,CCC1(CC)Cc2ccccc2-c2nc3ccccc3c(=O)n21,24.2
18,CN(CC(=O)Nn1cnnc1)S(=O)(=O)c1ccccc1,13.3
